Assay results taken from the supplement of paper PMC6657886.

Experiments:
Assay in all cases: Agar dilution on enriched GC agar; resistance determinants by microarray.
tetracycline = compound: CN(C)[C@@H]1C(O)=C(C(N)=O)C(=O)[C@@]2(O)C(O)=C3C(=O)c4c(O)cccc4[C@@](C)(O)[C@H]3C[C@@H]12 [tetracycline]
ceftriaxone = compound: CO/N=C(\C(=O)N[C@@H]1C(=O)N2C(C(=O)O)=C(CSc3nc(=O)c(O)nn3C)CS[C@H]12)c1csc(N)n1 [ceftriaxone]
spectinomycin = compound: CN[C@@H]1[C@H](O)[C@H](NC)[C@H]2O[C@@]3(O)C(=O)C[C@@H](C)O[C@H]3O[C@@H]2[C@H]1O [spectinomycin]
azithromycin = compound: CC[C@H]1OC(=O)[C@H](C)[C@@H](O[C@H]2C[C@@](C)(OC)[C@@H](O)[C@H](C)O2)[C@H](C)[C@@H](O[C@@H]2O[C@H](C)C[C@H](N(C)C)[C@H]2O)[C@](C)(O)C[C@@H](C)CN(C)[C@H](C)[C@@H](O)[C@]1(C)O [azithromycin]
benzylpenicillin = compound: CC1(C)S[C@@H]2[C@H](NC(=O)Cc3ccccc3)C(=O)N2[C@H]1C(=O)O [benzylpenicillin]

## Neisseria gonorrhoeae isolate 429 (blaTEM plasmid: no, gyrA: wild type, mtrR promoter: wild type, parC: wild type, penA: wild type, ponA: wild type, porB: wild type, rpsJ: wild type, tetM plasmid: no)
tetracycline
  MIC: 0.06 µg/mL
ceftriaxone
  MIC: ≤ 0.002 µg/mL
spectinomycin
  MIC: 16 µg/mL
azithromycin
  MIC: 0.12 µg/mL
benzylpenicillin
  MIC: ≤ 0.015 µg/mL

## Neisseria gonorrhoeae isolate 487 (blaTEM plasmid: no, gyrA: wild type, mtrR promoter: wild type, parC: wild type, penA: wild type, ponA: wild type, porB: wild type, rpsJ: wild type, tetM plasmid: no)
tetracycline
  MIC: 0.25 µg/mL
ceftriaxone
  MIC: ≤ 0.002 µg/mL
spectinomycin
  MIC: 32 µg/mL
azithromycin
  MIC: 0.12 µg/mL
benzylpenicillin
  MIC: ≤ 0.015 µg/mL

## Neisseria gonorrhoeae isolate 99 (blaTEM plasmid: no, gyrA: Thr91, Gly95, mtrR promoter: wild type, parC: wild type, penA: wild type, ponA: wild type, porB: wild type, rpsJ: wild type, tetM plasmid: yes)
tetracycline
  MIC: 16 µg/mL
ceftriaxone
  MIC: 0.008 µg/mL
spectinomycin
  MIC: 16 µg/mL
azithromycin
  MIC: 0.12 µg/mL
benzylpenicillin
  MIC: 0.12 µg/mL

## Neisseria gonorrhoeae isolate 444 (blaTEM plasmid: no, gyrA: Phe91, Asn 95, mtrR promoter: -35delA, parC: Ser87, Gly91, penA: ins345Asp, ponA: Pro421, porB: Asn120, Asp121, rpsJ: Met57, tetM plasmid: no)
tetracycline
  MIC: 2 µg/mL
ceftriaxone
  MIC: 0.008 µg/mL
spectinomycin
  MIC: 16 µg/mL
azithromycin
  MIC: 0.25 µg/mL
benzylpenicillin
  MIC: 0.06 µg/mL

## Neisseria gonorrhoeae isolate 100 (blaTEM plasmid: no, gyrA: Thr91, Gly95, mtrR promoter: wild type, parC: wild type, penA: wild type, ponA: wild type, porB: Gly120, Ser121, rpsJ: Met57, tetM plasmid: no)
tetracycline
  MIC: 0.5 µg/mL
ceftriaxone
  MIC: ≤ 0.002 µg/mL
spectinomycin
  MIC: 16 µg/mL
azithromycin
  MIC: 0.06 µg/mL
benzylpenicillin
  MIC: 0.5 µg/mL

## Neisseria gonorrhoeae isolate 480 (blaTEM plasmid: no, gyrA: Phe91, Gly95, mtrR promoter: -35delA, parC: Arg87, Glu91, penA: ins345Asp, ponA: Pro421, porB: wild type, rpsJ: Met57, tetM plasmid: no)
tetracycline
  MIC: 0.25 µg/mL
ceftriaxone
  MIC: ≤ 0.002 µg/mL
spectinomycin
  MIC: 16 µg/mL
azithromycin
  MIC: 0.25 µg/mL
benzylpenicillin
  MIC: ≤ 0.015 µg/mL

## Neisseria gonorrhoeae isolate 454 (blaTEM plasmid: no, gyrA: wild type, mtrR promoter: wild type, parC: Arg87, Glu91, penA: ins345Asp, ponA: Pro421, porB: wild type, rpsJ: Met57, tetM plasmid: no)
tetracycline
  MIC: 1 µg/mL
ceftriaxone
  MIC: 0.008 µg/mL
spectinomycin
  MIC: 32 µg/mL
azithromycin
  MIC: 0.12 µg/mL
benzylpenicillin
  MIC: 0.12 µg/mL

## Neisseria gonorrhoeae isolate 461 (blaTEM plasmid: no, gyrA: wild type, mtrR promoter: wild type, parC: wild type, penA: wild type, ponA: wild type, porB: wild type, rpsJ: wild type, tetM plasmid: no)
tetracycline
  MIC: 0.25 µg/mL
ceftriaxone
  MIC: ≤ 0.002 µg/mL
spectinomycin
  MIC: 8 µg/mL
azithromycin
  MIC: 0.12 µg/mL
benzylpenicillin
  MIC: ≤ 0.015 µg/mL

## Neisseria gonorrhoeae isolate 259 (blaTEM plasmid: no, gyrA: wild type, mtrR promoter: wild type, parC: wild type, penA: ins345Asp, ponA: wild type, porB: wild type, rpsJ: wild type, tetM plasmid: no)
tetracycline
  MIC: 0.25 µg/mL
ceftriaxone
  MIC: ≤ 0.002 µg/mL
spectinomycin
  MIC: 16 µg/mL
azithromycin
  MIC: 0.06 µg/mL
benzylpenicillin
  MIC: 0.03 µg/mL

## Neisseria gonorrhoeae isolate 493 (blaTEM plasmid: no, gyrA: wild type, mtrR promoter: wild type, parC: wild type, penA: ins345Asp, ponA: wild type, porB: wild type, rpsJ: wild type, tetM plasmid: no)
tetracycline
  MIC: 0.12 µg/mL
ceftriaxone
  MIC: 0.008 µg/mL
spectinomycin
  MIC: 4 µg/mL
azithromycin
  MIC: 0.12 µg/mL
benzylpenicillin
  MIC: 0.12 µg/mL

## Neisseria gonorrhoeae isolate 315 (blaTEM plasmid: no, gyrA: wild type, mtrR promoter: wild type, parC: wild type, penA: ins345Asp, ponA: wild type, porB: wild type, rpsJ: Met57, tetM plasmid: no)
tetracycline
  MIC: 1 µg/mL
ceftriaxone
  MIC: ≤ 0.002 µg/mL
spectinomycin
  MIC: 16 µg/mL
azithromycin
  MIC: 0.06 µg/mL
benzylpenicillin
  MIC: 0.06 µg/mL

## Neisseria gonorrhoeae isolate 185 (blaTEM plasmid: no, gyrA: Ser91, Asn95, mtrR promoter: wild type, parC: wild type, penA: ins345Asp, ponA: Pro421, porB: wild type, rpsJ: Met57, tetM plasmid: no)
tetracycline
  MIC: 0.5 µg/mL
ceftriaxone
  MIC: 0.008 µg/mL
spectinomycin
  MIC: 8 µg/mL
azithromycin
  MIC: 0.06 µg/mL
benzylpenicillin
  MIC: 0.06 µg/mL

## Neisseria gonorrhoeae isolate 97 (blaTEM plasmid: no, gyrA: Phe91, Gly95, mtrR promoter: -35delA, parC: Arg87, Glu91, penA: ins345Asp, ponA: Pro421, porB: wild type, rpsJ: Met57, tetM plasmid: no)
tetracycline
  MIC: 1 µg/mL
ceftriaxone
  MIC: 0.004 µg/mL
spectinomycin
  MIC: 16 µg/mL
azithromycin
  MIC: 0.5 µg/mL
benzylpenicillin
  MIC: 0.12 µg/mL

## Neisseria gonorrhoeae isolate 11 (blaTEM plasmid: no, gyrA: wild type, mtrR promoter: wild type, parC: wild type, penA: wild type, ponA: wild type, porB: wild type, rpsJ: wild type, tetM plasmid: no)
tetracycline
  MIC: 0.25 µg/mL
ceftriaxone
  MIC: ≤ 0.002 µg/mL
spectinomycin
  MIC: 32 µg/mL
azithromycin
  MIC: 0.12 µg/mL
benzylpenicillin
  MIC: ≤ 0.015 µg/mL

## Neisseria gonorrhoeae isolate 336 (blaTEM plasmid: no, gyrA: wild type, mtrR promoter: wild type, parC: wild type, penA: wild type, ponA: wild type, porB: wild type, rpsJ: wild type, tetM plasmid: no)
tetracycline
  MIC: 0.25 µg/mL
ceftriaxone
  MIC: ≤ 0.002 µg/mL
spectinomycin
  MIC: 32 µg/mL
azithromycin
  MIC: 0.12 µg/mL
benzylpenicillin
  MIC: ≤ 0.015 µg/mL

## Neisseria gonorrhoeae isolate 302 (blaTEM plasmid: no, gyrA: Phe91, Asn95, mtrR promoter: wild type, parC: wild type, penA: ins345Asp, ponA: Pro421, porB: Asn120, Asp121, rpsJ: Met57, tetM plasmid: no)
tetracycline
  MIC: 4 µg/mL
ceftriaxone
  MIC: 0.008 µg/mL
spectinomycin
  MIC: 16 µg/mL
azithromycin
  MIC: 0.5 µg/mL
benzylpenicillin
  MIC: 0.5 µg/mL

## Neisseria gonorrhoeae isolate 243 (blaTEM plasmid: no, gyrA: Phe91, Asn95, mtrR promoter: -35delA, parC: wild type, penA: ins345Asp, ponA: Pro421, porB: wild type, rpsJ: Met57, tetM plasmid: no)
tetracycline
  MIC: 1 µg/mL
ceftriaxone
  MIC: 0.03 µg/mL
spectinomycin
  MIC: 32 µg/mL
azithromycin
  MIC: 0.06 µg/mL
benzylpenicillin
  MIC: 0.25 µg/mL

## Neisseria gonorrhoeae isolate 203 (blaTEM plasmid: no, gyrA: Phe91, Asn95, mtrR promoter: -35delA, parC: Arg87, Glu91, penA: ins345Asp, ponA: Pro421, porB: wild type, rpsJ: Met57, tetM plasmid: no)
tetracycline
  MIC: 1 µg/mL
ceftriaxone
  MIC: 0.008 µg/mL
spectinomycin
  MIC: 32 µg/mL
azithromycin
  MIC: 1 µg/mL
benzylpenicillin
  MIC: 1 µg/mL

## Neisseria gonorrhoeae isolate 472 (blaTEM plasmid: no, gyrA: wild type, mtrR promoter: wild type, parC: wild type, penA: ins345Asp, ponA: wild type, porB: wild type, rpsJ: wild type, tetM plasmid: no)
tetracycline
  MIC: 0.12 µg/mL
ceftriaxone
  MIC: 0.008 µg/mL
spectinomycin
  MIC: 32 µg/mL
azithromycin
  MIC: 0.125 µg/mL
benzylpenicillin
  MIC: 0.12 µg/mL

## Neisseria gonorrhoeae isolate 459 (blaTEM plasmid: no, gyrA: wild type, mtrR promoter: wild type, parC: wild type, penA: ins345Asp, ponA: wild type, porB: wild type, rpsJ: wild type, tetM plasmid: no)
tetracycline
  MIC: 0.12 µg/mL
ceftriaxone
  MIC: ≤ 0.002 µg/mL
spectinomycin
  MIC: 16 µg/mL
azithromycin
  MIC: 0.12 µg/mL
benzylpenicillin
  MIC: 0.12 µg/mL

## Neisseria gonorrhoeae isolate 206 (blaTEM plasmid: no, gyrA: Phe91, Asn 95, mtrR promoter: wild type, parC: Arg 87, Glu91, penA: ins345Asp, ponA: Pro421, porB: wild type, rpsJ: Met57, tetM plasmid: no)
tetracycline
  MIC: 0.5 µg/mL
ceftriaxone
  MIC: 0.004 µg/mL
spectinomycin
  MIC: 16 µg/mL
azithromycin
  MIC: 0.06 µg/mL
benzylpenicillin
  MIC: 0.25 µg/mL

## Neisseria gonorrhoeae isolate 479 (blaTEM plasmid: no, gyrA: wild type, mtrR promoter: wild type, parC: wild type, penA: ins345Asp, ponA: Pro421, porB: wild type, rpsJ: wild type, tetM plasmid: no)
tetracycline
  MIC: 0.06 µg/mL
ceftriaxone
  MIC: ≤ 0.002 µg/mL
spectinomycin
  MIC: 4 µg/mL
azithromycin
  MIC: 0.03 µg/mL
benzylpenicillin
  MIC: 0.06 µg/mL

## Neisseria gonorrhoeae isolate 425 (blaTEM plasmid: no, gyrA: wild type, mtrR promoter: wild type, parC: wild type, penA: wild type, ponA: wild type, porB: wild type, rpsJ: wild type, tetM plasmid: no)
tetracycline
  MIC: 0.5 µg/mL
ceftriaxone
  MIC: ≤ 0.002 µg/mL
spectinomycin
  MIC: 16 µg/mL
azithromycin
  MIC: 0.25 µg/mL
benzylpenicillin
  MIC: ≤ 0.015 µg/mL

## Neisseria gonorrhoeae isolate 87 (blaTEM plasmid: no, gyrA: Thr91, Gly95, mtrR promoter: wild type, parC: wild type, penA: wild type, ponA: wild type, porB: wild type, rpsJ: wild type, tetM plasmid: yes)
tetracycline
  MIC: 16 µg/mL
ceftriaxone
  MIC: ≤ 0.002 µg/mL
spectinomycin
  MIC: 32 µg/mL
azithromycin
  MIC: 0.006 µg/mL
benzylpenicillin
  MIC: 0.06 µg/mL

## Neisseria gonorrhoeae isolate 358 (blaTEM plasmid: no, gyrA: wild type, mtrR promoter: wild type, parC: wild type, penA: ins345Asp, ponA: wild type, porB: wild type, rpsJ: wild type, tetM plasmid: no)
tetracycline
  MIC: 0.5 µg/mL
ceftriaxone
  MIC: 0.008 µg/mL
spectinomycin
  MIC: 32 µg/mL
azithromycin
  MIC: 0.015 µg/mL
benzylpenicillin
  MIC: 0.12 µg/mL

MIC of clinical N. gonorrhoeae isolates (2015-2017) by agar dilution on GC agar with 1% IsoVitaleX (ranges not stated); higher = less susceptible. No active / inactive call per row; the paper counts benzylpenicillin above 1 and ceftriaxone above 0.125 mg/L as resistant (EUCAST). The method is stated for benzylpenicillin and ceftriaxone and assumed for the other drugs. '<=' is inferred from pile-ups at the end values. Isolates are numbered anew.
